Measured values as given in the supplement of paper PMC4967469.
By IC50 is meant the dose at which the fit gives 50% viability; a limit (>, <) means that the fit lies beyond the doses tested. The AUC spans the tested range (256-fold, ending at the top dose) of the same fit; the more sensitive the line, the further below 1. A top dose marked as inferred was derived from the fitted curves, not read from the paper.

Assays:
Test in all cases: Viability of human cancer cell lines after 72 h of drug (GDSC screen)
[1] = compound: COc1cc(N2CCN(C)CC2)ccc1Nc1nc(N)c(C(=O)c2c(Cl)cccc2Cl)s1 [XMD14-99]; conditions: top dose 10.24 µM; top dose inferred
Experimental: (§1)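 Human cancer cell lines in 384-well plates, medium with 10% serum, drug for 72 h over a 256-fold dose range (nine 2-fold or five 4-fold steps up to the top dose). Adherent lines were fixed and stained with the nucleic acid dye Syto60, suspension lines read with resazurin; signal relative to control wells, capped at 0 and 100%. One two-parameter sigmoid per drug and line, fitted in a mixed model over all curves with the slope shared within a line.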

[2] = compound: O=C(NC1CCNCC1)c1n[nH]cc1NC(=O)c1c(Cl)cccc1Cl [AT-7519]; conditions: top dose 10.24 µM; top dose inferred
Experimental: as §1

[3] = compound: Cc1cc([N+](=O)[O-])ccc1NS(=O)(=O)c1cc(Cl)ccc1Cl [FH535]; conditions: top dose 32 µM; top dose inferred
Experimental: as §1

SNU-175 (large intestine, suspension)
AUC [1]: 0.892 | IC50 [1]: > 10.2 µM | AUC [2]: 0.497 | IC50 [2]: 0.63 µM

CFPAC-1 (pancreas, adherent)
AUC [1]: 0.98 | IC50 [1]: > 10.2 µM | AUC [2]: 0.786 | IC50 [2]: 5.14 µM

COR-L303 (small cell lung carcinoma, suspension)
AUC [1]: 0.975 | IC50 [1]: > 10.2 µM | AUC [2]: 0.329 | IC50 [2]: 0.217 µM

RCC-AB (kidney, adherent)
AUC [1]: 0.949 | IC50 [1]: > 10.2 µM | AUC [2]: 0.762 | IC50 [2]: 4.75 µM

SCC90 (head and neck, adherent)
AUC [3]: 0.739 | IC50 [3]: 13.2 µM | AUC [2]: 0.514 | IC50 [2]: 0.71 µM

STS-0421 (soft tissue, adherent)
AUC [3]: 0.645 | IC50 [3]: 5.41 µM | AUC [2]: 0.379 | IC50 [2]: 0.28 µM

RCC-FG2 (kidney, adherent)
AUC [1]: 0.971 | IC50 [1]: > 10.2 µM | AUC [2]: 0.961 | IC50 [2]: > 10.2 µM

OV-56 (ovary, adherent)
AUC [1]: 0.985 | IC50 [1]: > 10.2 µM | AUC [2]: 0.736 | IC50 [2]: 2.92 µM

SW1116 (large intestine, adherent)
AUC [1]: 0.985 | IC50 [1]: > 10.2 µM | AUC [2]: 0.985 | IC50 [2]: > 10.2 µM

CADO-ES1 (Ewing sarcoma, suspension)
AUC [1]: 0.858 | IC50 [1]: 8.63 µM | AUC [2]: 0.85 | IC50 [2]: 8 µM

KP-1N (pancreas, adherent)
AUC [3]: 0.586 | IC50 [3]: 3.48 µM | AUC [2]: 0.462 | IC50 [2]: 0.503 µM

YMB-1-E (breast, adherent)
AUC [1]: 0.979 | IC50 [1]: > 10.2 µM | AUC [2]: 0.887 | IC50 [2]: > 10.2 µM

Hey (ovary, adherent)
AUC [1]: 0.985 | IC50 [1]: > 10.2 µM | AUC [2]: 0.629 | IC50 [2]: 1.42 µM

D-423MG (glioma, adherent)
AUC [1]: 0.965 | IC50 [1]: > 10.2 µM | AUC [2]: 0.67 | IC50 [2]: 2.13 µM

SK-MG-1 (glioma, adherent)
AUC [1]: 0.936 | IC50 [1]: > 10.2 µM | AUC [2]: 0.888 | IC50 [2]: > 10.2 µM

A2058 (melanoma, adherent)
AUC [1]: 0.986 | IC50 [1]: > 10.2 µM | AUC [3]: 0.485 | IC50 [3]: 1.82 µM

D-566MG (glioma, adherent)
AUC [1]: 0.984 | IC50 [1]: > 10.2 µM | AUC [2]: 0.672 | IC50 [2]: 1.92 µM

QGP-1 (pancreas, adherent)
AUC [1]: 0.951 | IC50 [1]: > 10.2 µM | AUC [2]: 0.6 | IC50 [2]: 1.42 µM

DOV13 (ovary, adherent)
AUC [1]: 0.974 | IC50 [1]: > 10.2 µM | AUC [2]: 0.971 | IC50 [2]: > 10.2 µM

JHOS-3 (ovary, adherent)
AUC [1]: 0.968 | IC50 [1]: > 10.2 µM | AUC [2]: 0.846 | IC50 [2]: > 10.2 µM

OVCA433 (ovary, adherent)
AUC [1]: 0.98 | IC50 [1]: > 10.2 µM | AUC [2]: 0.918 | IC50 [2]: > 10.2 µM

SNU-407 (large intestine, adherent)
AUC [1]: 0.98 | IC50 [1]: > 10.2 µM | AUC [2]: 0.815 | IC50 [2]: 6.83 µM

IGR-1 (melanoma, adherent)
AUC [1]: 0.948 | IC50 [1]: > 10.2 µM | AUC [3]: 0.439 | IC50 [3]: 1.39 µM

TE-4 (oesophagus, adherent)
AUC [1]: 0.984 | IC50 [1]: > 10.2 µM | AUC [2]: 0.779 | IC50 [2]: 4.18 µM

ESO51 (oesophagus, semi-adherent)
AUC [1]: 0.977 | IC50 [1]: > 10.2 µM | AUC [2]: 0.552 | IC50 [2]: 0.94 µM

OVK-18 (ovary, adherent)
AUC [1]: 0.964 | IC50 [1]: > 10.2 µM | AUC [2]: 0.925 | IC50 [2]: > 10.2 µM

NCI-H630 (large intestine, adherent)
AUC [1]: 0.978 | IC50 [1]: > 10.2 µM | AUC [2]: 0.977 | IC50 [2]: > 10.2 µM

CHP-134 (neuroblastoma, suspension)
AUC [1]: 0.954 | IC50 [1]: > 10.2 µM | AUC [2]: 0.767 | IC50 [2]: 4.83 µM

HCT-116 (large intestine, adherent)
AUC [1]: 0.935 | IC50 [1]: > 10.2 µM | AUC [3]: 0.628 | IC50 [3]: 4.42 µM

RCC-MF (kidney, adherent)
AUC [1]: 0.948 | IC50 [1]: > 10.2 µM | AUC [2]: 0.773 | IC50 [2]: 5.24 µM

OACp4C (oesophagus, adherent)
AUC [1]: 0.971 | IC50 [1]: > 10.2 µM | AUC [2]: 0.455 | IC50 [2]: 0.471 µM

UWB1.289 (ovary, adherent)
AUC [1]: 0.979 | IC50 [1]: > 10.2 µM | AUC [2]: 0.832 | IC50 [2]: > 10.2 µM

COR-L321 (lung, suspension)
AUC [1]: 0.96 | IC50 [1]: > 10.2 µM | AUC [2]: 0.364 | IC50 [2]: 0.27 µM

SK-GT-4 (oesophagus, adherent)
AUC [1]: 0.97 | IC50 [1]: > 10.2 µM | AUC [2]: 0.711 | IC50 [2]: 2.95 µM

Hs746T (stomach, adherent)
AUC [1]: 0.981 | IC50 [1]: > 10.2 µM | AUC [2]: 0.713 | IC50 [2]: 3.2 µM

RCC-JF (kidney, adherent)
AUC [1]: 0.981 | IC50 [1]: > 10.2 µM | AUC [2]: 0.731 | IC50 [2]: 3.2 µM

SNU-61 (large intestine, adherent)
AUC [1]: 0.983 | IC50 [1]: > 10.2 µM | AUC [2]: 0.319 | IC50 [2]: 0.168 µM

KYAE-1 (oesophagus, suspension)
AUC [1]: 0.969 | IC50 [1]: > 10.2 µM | AUC [2]: 0.442 | IC50 [2]: 0.437 µM

COR-L311 (small cell lung carcinoma, suspension)
AUC [1]: 0.947 | IC50 [1]: > 10.2 µM | AUC [2]: 0.062 | IC50 [2]: < 0.04 µM

SNU-1040 (large intestine, adherent)
AUC [1]: 0.979 | IC50 [1]: > 10.2 µM | AUC [2]: 0.246 | IC50 [2]: 0.0902 µM

YH-13 (glioma, adherent)
AUC [1]: 0.986 | IC50 [1]: > 10.2 µM | AUC [2]: 0.795 | IC50 [2]: 5.07 µM

PEO1 (ovary, adherent)
AUC [1]: 0.979 | IC50 [1]: > 10.2 µM | AUC [2]: 0.694 | IC50 [2]: 2.31 µM

RH-18 (rhabdomyosarcoma, adherent)
AUC [2]: 0.462 | IC50 [2]: 0.495 µM

NCI-H292 (lung adenocarcinoma, adherent)
AUC [1]: 0.979 | IC50 [1]: > 10.2 µM | AUC [3]: 0.732 | IC50 [3]: 10.7 µM

OACM5-1 (oesophagus, semi-adherent)
AUC [1]: 0.952 | IC50 [1]: > 10.2 µM | AUC [2]: 0.228 | IC50 [2]: 0.0922 µM

OV-7 (ovary, adherent)
AUC [1]: 0.934 | IC50 [1]: > 10.2 µM | AUC [2]: 0.551 | IC50 [2]: 0.948 µM

RCC-ER (kidney, adherent)
AUC [1]: 0.972 | IC50 [1]: > 10.2 µM | AUC [2]: 0.913 | IC50 [2]: > 10.2 µM

OV-17R (ovary, adherent)
AUC [1]: 0.975 | IC50 [1]: > 10.2 µM | AUC [2]: 0.95 | IC50 [2]: > 10.2 µM

KOSC-2 (head and neck, adherent)
AUC [1]: 0.985 | IC50 [1]: > 10.2 µM | AUC [3]: 0.978 | IC50 [3]: > 32 µM

HT-1197 (bladder, adherent)
AUC [1]: 0.979 | IC50 [1]: > 10.2 µM | AUC [3]: 0.716 | IC50 [3]: 9.25 µM

EMC-BAC-2 (lung adenocarcinoma, adherent)
AUC [1]: 0.981 | IC50 [1]: > 10.2 µM | AUC [2]: 0.757 | IC50 [2]: 4.15 µM

OV-90 (ovary, adherent)
AUC [1]: 0.972 | IC50 [1]: > 10.2 µM | AUC [2]: 0.687 | IC50 [2]: 2.49 µM
